# In PMC12136788:
# Some of the results follow.
# T1: UNK ZnF1-3 (human, UniProt Q9C0B0 31-174)
# T1 sequence: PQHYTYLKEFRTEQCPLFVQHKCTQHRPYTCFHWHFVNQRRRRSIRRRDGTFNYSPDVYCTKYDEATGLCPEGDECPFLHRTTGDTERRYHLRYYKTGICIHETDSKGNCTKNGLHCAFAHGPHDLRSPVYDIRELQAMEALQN
# B1: chr6:109690081:109690082:-_ENSG00000135535_ENST00000310786|hu_hu|FALSE|FALSE (ssRNA)
# RNA: GGGAGUUCUACAGUCCGACGAUCCAGUCCUUAUUAAUUCAAUGGGUCUGUUUACAGAGUGUGGUAAUUUCGUUCUUUAGAUUUGCAGAAUUUAUAAAGAAAGAAAAUUACAGCCUGCACACCCAAGACCAGGACAAUUCCUCCCAACAGAGGAUUGAGCAUCA
# B2: chr2:198351390:198351391:-_ENSG00000144381_ENST00000345042|hu_hu|hu_hu_hu_mus_False|68_108 (ssRNA)
# RNA: GGGAGUUCUACAGUCCGACGAUCUCAUUCUCACUCUCCACAGAAAGGCUGCUUCUGAACUCUCAUGGUGGUGGCAAGCGCUACAGUCCUGAUGCUCACAGAACAGUAGAGAUGCCUCAGUGAUUUAAGUUGAAAGCAGGACACCAACAGAGGAUUGAGCAUCA
# B3: chr1:235506033:235506034:+_ENSG00000152904_ENST00000391855|hu_mus|FALSE|FALSE (ssRNA)
# RNA: GGGAGUUCUACAGUCCGACGAUCAUAGUAUUAUUUAUUUUCUUCUGUGAACAUCUUACUUAAGUGCUUGACUAAAGCCACUAGUGAAGGGUUCCCACCACAGGCCUCAAUUUGUUUGUAGGCUUUAGCUUCAAGCUCUCUAAGCAACAGAGGAUUGAGCAUCA
# B4: 28084974_28085094_2391_CDS_ENSMUSG00000002221_ENSMUST00000002291|mouse|control|control (ssRNA)
# RNA: GGGAGUUCUACAGUCCGACGAUCAAGACCCAAGACCAAGUGUGGAGUGGGAACGAAGGGGUCCGGCAUGUUGAAGGCGGUGUACCGGCUGUACUGCACUUGCCGCAGGGCCUCAAAGUUCCCCAGCAGAAUGUCCCCCAGCCACAACAGAGGAUUGAGCAUCA
# B5: chr11:74329583:74329584:+_ENSG00000077514_ENST00000263681|hu_hu|motif|central (ssRNA)
# RNA: GGGAGUUCUACAGUCCGACGAUCAGACGAAGAGGAUUCAGCAGGAGCUCUAGGGACGGCAGCUGCACAUUGUAUAGCACGGAAUUUGCUGCAGUUCUGCAAGUUGCUUUUAAGGAUGUCAUAGUCAGUAUUGAACAGAGGCCCCAACAGAGGAUUGAGCAUCA
# B6: chr4:39739082:39739083:+_ENSG00000078140_ENST00000261427|perfect_dup|FALSE|FALSE (ssRNA)
# RNA: GGGAGUUCUACAGUCCGACGAUCUAUUUUUAUCUCUAGUUGGUAUCUUCCUCCUUCAUAUGGUGUGUCUGGAGGUCCUGCUAUUUCUCCUCUUAAUUCUGUAAAAUUCUCAUCUACAAGAUCUACUUUAAUUUGAUUUUUGCUCAACAGAGGAUUGAGCAUCA
# B7: chr2:71371598:71371599:+_ENSG00000124383_ENST00000244230|hu_hu|FALSE|FALSE (ssRNA)
# RNA: GGGAGUUCUACAGUCCGACGAUCAAAGUGGAAGUUUGAGAGGGCAUCCAAUUUUAAGAAGAGGGAAUCCAUCAUCUUCUGAAUUUCUACAUGUUCUGGAUUUUCUUCUUCUGCUGUUUUUUGCUGGUUGAGUUUGAUGUACUCCAACAGAGGAUUGAGCAUCA
# B8: chr18:52893488:52893489:-_ENSG00000196628_ENST00000354452|hu_hu|hu_hu_hu_mus_True|1_38 (ssRNA)
# RNA: GGGAGUUCUACAGUCCGACGAUCUAUUUAGACCAUUUCCGCGGAGUUAUGGCAUUUACUCAGUGCUGAUAGGUGGAAAAACUACUUCAACAGGGAUUUUUUUUUUUCUUAAUACAUGCCAAGAUUGUGUGGCUGUCAAAAAUACAACAGAGGAUUGAGCAUCA
# B9: 27494382_27495587_4028_CDS_ENSG00000077235_ENST00000561623|human|control|control (ssRNA)
# RNA: GGGAGUUCUACAGUCCGACGAUCACCUCUUCGAUUCAUGAAAUCUCCAACAAGUGCUUUAUCCUGGUACACCUCGGCCAGGCACACUUUAUAGUUGAGAUAGGCCUGUGGGUUUUUGACUAUGUAGCGAGCUCUUCGUCCAACCAACAGAGGAUUGAGCAUCA
# B10: chrX:119387588:119387589:+_ENSG00000177485_ENST00000326624|hu_hu|motif|central (ssRNA)
# RNA: GGGAGUUCUACAGUCCGACGAUCUGAGAUGCUUUUAACCUGUGACAAUGGGACACCAAGCUCUGCUAUAAAUUUCACUCCGGAUAACUGCCCUGAUUUAAUUAACUCAUCAAGCAAAUCUGAUCUAACACGAACAAUUUUAGACAACAGAGGAUUGAGCAUCA
# B11: chr7:54825262:54825263:-_ENSG00000132432_ENST00000352861|hu_hu|hu_hu_hu_mus_False|8_28 (ssRNA)
# RNA: GGGAGUUCUACAGUCCGACGAUCCUGCCGGCUGGGCUCCACAAACUGCAUUACCUGAUCCAUGUUUGUUGGAUGGCGGAUUGAGAGCGUAGAGACACGUAGCUCAGGGAGCUUGCUAGCCCAACGGCACCGGAACCUGGCAACCAACAGAGGAUUGAGCAUCA
# B12: chr1:117910967:117910968:+_ENSG00000198162_ENST00000356554|hu_hu|motif|central (ssRNA)
# RNA: GGGAGUUCUACAGUCCGACGAUCUUUUGAAGAGUCUGGAAGGAAAAAGAAUGCCCCAAAACACAGAGUGAUGAAGGCACGGAGAAUAAGGAGAAGAAUAAACUUCUCAGAAAGUCUCAAGGUAGCCCUGUGAUGUGGGAAGGACAACAGAGGAUUGAGCAUCA
# B13: 87969386_87969506_6142_CDS_ENSG00000188994_ENST00000369577|human|control|control (ssRNA)
# RNA: GGGAGUUCUACAGUCCGACGAUCUGUUUUGUCAGGACUUUUUUUUUCUACAAGUUGUUUUUCUGGGAUCACUGCUACAUUACUGUGGGUAUUUUGGGUCUCUGCUCUCAAUUCUAAAGCAGGCUGAGAUUCCUUUUUAUUUUCCAACAGAGGAUUGAGCAUCA
# B14: chr18:52894491:52894492:-_ENSG00000196628_ENST00000354452|hu_hu|motif|central (ssRNA)
# RNA: GGGAGUUCUACAGUCCGACGAUCAAAAAAAAAAAAUCCAUAUUUACAGUAAAAUCUUUCUUUUAAAAAAGUUAAUCAGUACGGUUUUUUUACAGGAGAAAAAAGUCUGAAACAAAUGAACAAAAGCUUACCAUAGUCACUAAACAACAGAGGAUUGAGCAUCA
# Biological target: T1, UNK ZnF1-3
# Experiment: nsRBNS (natural sequence RNA bind-n-seq); RBNS binding buffer (assumed for nsRBNS): 25 mM Tris pH 7.5, 150 mM KCl, 3 mM MgCl2, 0.01% Triton X-100, 500 ug/ml BSA, 20 U/ml SUPERase-In, 4 C; UNK is unkempt and MSI1 is Musashi-1; names of the RNAs are library labels; protein concentration not given here; high values mean tight binding
row,Binder,binding signal [enrichment R]
1,B1,1.4
2,B2,1.14
3,B3,0.938
4,B4,0.846
5,B5,1.36
6,B6,0.379
7,B7,0.987
8,B8,1.06
9,B9,1.08
10,B10,1.4
11,B11,1.23
12,B12,2.8
13,B13,0.454
14,B14,1.13
